{"source": "ChEMBL document CHEMBL4888484", "about": "“Replenishing the malaria drug discovery pipeline: Screening and hit evaluation of the MMV Hit Generation Library 1 (HGL1) against asexual blood stage Plasmodium falciparum ,using a nano luciferase reporter read-out” (2022)", "note": "Screen size: about 150,000 compounds; about 540 (0.36%) showed an effect of 50% or more. Some of the results follow."}
{"test_system": "Plasmodium falciparum", "test": "Primary screen in NF54 nanoGlo assay, in single point, at 2uM, 72h; a lower Z score goes with more inhibition", "type": "functional, Erythrocyte", "conditions": "timepoint 72 hour", "units": {"% Inhibition": "%"}}
{"compound": "O=C(c1cccs1)N1CCC(CCOc2ccc(F)cc2)CC1", "% Inhibition": -2, "Z score": 0.36}
{"compound": "CC(C)[C@H](CCO)NC(=O)CC1CCCCC1", "% Inhibition": -14, "Z score": 2.56}
{"compound": "CCOc1ccc(NC(=O)Cn2nc3ccc(C(=O)Nc4ccc(C)cc4)cn3c2=O)cc1", "% Inhibition": -8, "Z score": 0.81}
{"compound": "CC1CCOC1C(=O)NC(c1ccncc1)c1cc2ccccc2o1", "note": "(stereo unspecified)", "% Inhibition": -1, "Z score": 0.11}
{"compound": "CO[C@H]1C[C@H]2CN(C(=O)CCn3cnnn3)[C@@H](Cc3ccccc3)C(=O)N2C1", "% Inhibition": -6, "Z score": 0.96}
{"compound": "C[C@@H](C(=O)Nc1cc(C(F)(F)F)ccc1N1CCOCC1)N(C)Cc1ccc2c(c1)OCO2", "% Inhibition": -13, "Z score": 1.7}
{"compound": "Cc1cc(C(=O)N(CCC(=O)O)CC(C)C)ccc1F", "% Inhibition": -1, "Z score": 0.15}
{"compound": "CCNC(=O)NC[C@H]1CCN(Cc2cc3ccc(C)cc3nc2O)C1", "% Inhibition": -2, "Z score": 0.37}
{"compound": "CCOc1nc(C(=O)N2Cc3ccccc3C[C@@H]2CC)co1", "% Inhibition": 14, "Z score": -1.82}
{"compound": "CCN(CC)CC(=O)N(CC)C1CCCC1", "% Inhibition": -6, "Z score": 0.66}
{"compound": "CC(C)c1nccc(CN(CCCO)Cc2ccc(Cl)cc2)n1", "% Inhibition": 0, "Z score": 0.07}
{"compound": "C[C@@H](Cn1cccn1)NC(=O)c1cc(-c2ccc(F)cc2)nc2ncnn12", "% Inhibition": -22, "Z score": 4.37}
{"compound": "CCn1c(-c2cccc(C#N)c2)nnc1N(Cc1cccc(OC)c1)C[C@H]1CCCO1", "% Inhibition": -10, "Z score": 1.51}
{"compound": "COC(=O)[C@@H](NC(=O)CC1(c2ccc(OC)cc2)CC(=O)N(C2CCCC2)C1=O)c1ccccc1", "note": "(stereo partly specified)", "% Inhibition": -14, "Z score": 1.9}
{"compound": "CN1CC[C@H](CNC(=O)c2cc(C(F)F)ncn2)CC1=O", "% Inhibition": -9, "Z score": 0.91}
{"compound": "c1ccc(-c2nnc(N3CCCNCC3)s2)cc1", "% Inhibition": -3, "Z score": 0.29}
{"compound": "O=C1N[C@H]2C[C@@H](C(=O)NC[C@H]3O[C@H](CCOc4cc(-c5ccncc5)ccc41)CC[C@@H]3O)N(Cc1ccccc1)C2", "% Inhibition": 17, "Z score": -2.6}
{"compound": "CN(C(=O)c1cncc(F)c1)c1ncccc1C#N", "% Inhibition": -15, "Z score": 1.95}
{"compound": "CC1(C)CN([C@@H](CNCc2ncc[nH]2)c2ccc(Cl)cc2)CCO1", "% Inhibition": -3, "Z score": 0.41}
{"compound": "COc1ccc(C(Nc2cncc(CN(C)C)n2)[C@H]2C[C@@H](O)C2)cn1", "note": "(stereo partly specified)", "% Inhibition": -17, "Z score": 1.54}
{"compound": "C#CCCC1(CCC(=O)NCc2cccnn2)N=N1", "% Inhibition": -13, "Z score": 1.65}
{"compound": "O=C1CCC(C(=O)NCC2CC3c4ccccc4C2c2ccccc23)CN1", "note": "(stereo unspecified)", "% Inhibition": -5, "Z score": 0.52}
{"compound": "O=C(Cn1cnnn1)N(CC1CCC1)c1ccccc1", "% Inhibition": -13, "Z score": 1.65}
{"compound": "Clc1ccccc1CNCc1cn(C2CCC2)nn1", "% Inhibition": -2, "Z score": 0.36}
{"compound": "CCc1cccc2c1N(C(=O)c1oc(C)nc1C)CC2", "% Inhibition": -4, "Z score": 0.68}
{"compound": "Cc1ccc(CNC(=O)N2CCC3(CC2)OCC(=O)N3C)c(N2CCCC2)c1", "% Inhibition": -11, "Z score": 1.82}
{"compound": "O=C(NCCN1CCOCC1)c1ccccc1N1C(=O)[C@@H]2Cc3c([nH]c4ccccc34)C(c3ccccc3)N2C1=O", "note": "(stereo partly specified)", "% Inhibition": 3, "Z score": -0.35}
{"compound": "COc1nc(N(C)C)nc(N(OC)S(=O)(=O)c2ccccc2)n1", "% Inhibition": 25, "Z score": -2.79}
{"compound": "Cc1c(Cl)cccc1NC(=O)[C@@H]1CCCO1", "% Inhibition": 2, "Z score": -0.27}
{"compound": "CCO[C@H]1CCCN(C(=O)NCc2c(C)cc(C)[nH]c2=O)C1", "% Inhibition": 2, "Z score": -0.29}
{"compound": "CCCCS(=O)(=O)N1CCCCCC1", "% Inhibition": -12, "Z score": 1.62}
{"compound": "Cc1c(C(=O)NCC#C[C@@H]2CCCCO2)c2ccccc2n(C)c1=O", "% Inhibition": -9, "Z score": 1.69}
{"compound": "Cc1c(F)cccc1NC(=O)N(C)[C@@H](C)C1CCN(C)CC1", "% Inhibition": -5, "Z score": 0.88}
{"compound": "Cc1ccc(C(=O)NCC#N)c(O)c1C", "% Inhibition": -7, "Z score": 0.64}
{"compound": "COc1cccc2c1CCCCN2Cc1nnn(C(C)(C)C)n1", "% Inhibition": 4, "Z score": -0.84}
{"compound": "CNc1nc(Nc2ccc3c(c2)OCCO3)nc2ccccc12", "% Inhibition": 89, "Z score": -16.08}
{"compound": "O=S1(=O)CCC(CNc2ncc(F)cn2)CC1", "% Inhibition": -6, "Z score": 0.71}
{"compound": "CC(C)c1ncc(CN(C)[C@@H](C)c2cccnc2)cn1", "% Inhibition": -10, "Z score": 1.36}
{"compound": "Cc1nc(N(C)C)nc(N(C)Cc2ccco2)c1C", "% Inhibition": 5, "Z score": -0.84}
{"compound": "COCCN1C(=O)N[C@@](Cc2ccccc2Cl)(C2CCN(C(=O)c3cccnc3C)CC2)C1=O", "% Inhibition": -9, "Z score": 1.22}
{"compound": "Cc1ccn2c(C(=O)NCc3cc(F)ccc3C)nnc2n1", "% Inhibition": -17, "Z score": 3.23}
{"compound": "N#CCN(c1cc(F)cc(F)c1)S(=O)(=O)c1cccn2cnnc12", "% Inhibition": 11, "Z score": -1.34}
{"compound": "CCn1nc(C(=O)N2CCN(C3CCCCC3)CC2)c2c1CCOC2", "% Inhibition": -7, "Z score": 0.9}
